According to PubChem BioAssay AID504339 (National Center for Advancing Translational Sciences (NCATS), 2011):
In all, about 390,000 compounds went through this assay and about 17,000 (4.4%) were called active. Inconclusive means that the source gave no clear call. Such entries were picked first, then a sample of the others. Calls follow the shape of the dose curve; as a rule, active = well fitted inhibition curve with a large enough effect; inconclusive = small, poorly fitted or top-dose-only effect; inactive = no such curve, though single readings can be large or run the other way. A potency beside an inconclusive call is a rough fit, not a confirmed value. Square brackets hold non-standard residues; d marks the D form. Peptide text beside a SMILES is read from it. * marks the point of attachment. ξ: configuration not given here. ξArg(NO2) = N=C(NCCCC(N)C(=O)O)N[N+](=O)[O-]; Bz = O=C(c1ccccc1)*
% is scaled to controls: 0 for no effect and ±100 for the full control effect; potency is read from the fitted curve at half-maximal effect; tags tell the direction and shape of the fitted curve.
Also: nearly all actives have a fitted effect of over 50% in size.

Each compound was assayed against Lysine-specific demethylase 4A (Homo sapiens) (UniProt O75164) (assay: qHTS Assay for Inhibitors of JMJD2A-Tudor Domain). Conditions: AlphaScreen JMJD2A-Tudor / H3K4me3 peptide binding; activity change, negative = inhibition: at 114 µM (top of the series).
UniProt O75164, sequence (O75164 whole entry, looked up, the tested form may be a part): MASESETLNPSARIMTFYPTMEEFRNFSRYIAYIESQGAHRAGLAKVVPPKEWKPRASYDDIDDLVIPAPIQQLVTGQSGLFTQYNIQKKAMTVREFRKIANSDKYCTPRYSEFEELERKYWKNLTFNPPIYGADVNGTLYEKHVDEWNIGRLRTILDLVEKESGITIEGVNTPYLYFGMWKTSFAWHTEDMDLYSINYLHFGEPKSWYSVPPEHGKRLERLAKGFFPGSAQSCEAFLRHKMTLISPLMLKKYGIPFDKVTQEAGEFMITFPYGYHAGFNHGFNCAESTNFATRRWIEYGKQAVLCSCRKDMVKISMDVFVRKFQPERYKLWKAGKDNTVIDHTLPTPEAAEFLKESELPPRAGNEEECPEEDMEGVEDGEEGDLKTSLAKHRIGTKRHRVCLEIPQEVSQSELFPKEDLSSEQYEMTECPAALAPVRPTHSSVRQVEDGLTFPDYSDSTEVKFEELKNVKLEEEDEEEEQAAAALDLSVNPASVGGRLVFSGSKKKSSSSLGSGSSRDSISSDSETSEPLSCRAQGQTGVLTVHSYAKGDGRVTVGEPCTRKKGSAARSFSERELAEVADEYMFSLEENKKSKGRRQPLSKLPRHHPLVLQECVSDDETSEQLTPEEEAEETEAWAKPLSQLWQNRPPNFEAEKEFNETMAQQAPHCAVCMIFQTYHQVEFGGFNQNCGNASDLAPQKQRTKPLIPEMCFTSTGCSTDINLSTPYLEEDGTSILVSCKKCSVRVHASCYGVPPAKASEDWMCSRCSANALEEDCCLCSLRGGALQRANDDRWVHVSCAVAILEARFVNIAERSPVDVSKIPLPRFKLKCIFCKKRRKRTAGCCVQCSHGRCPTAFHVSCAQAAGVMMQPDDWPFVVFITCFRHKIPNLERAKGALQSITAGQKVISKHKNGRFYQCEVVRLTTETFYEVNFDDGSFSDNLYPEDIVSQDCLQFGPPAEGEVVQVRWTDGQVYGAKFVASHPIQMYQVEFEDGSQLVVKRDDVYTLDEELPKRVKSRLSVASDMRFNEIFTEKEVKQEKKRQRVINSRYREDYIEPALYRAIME
CN1CCN(Cc2c(F)cccc2Cl)CC1 was tested, and the Potency was active: 10 µM.
In the case of CC(C)Oc1ccc(C(=O)Nc2ccc3c(c2)CCCN3C(=O)c2cccs2)cc1, the Potency is reported as inconclusive: 56.2 µM [inhibitor, partial curve].
In the case of CN1OC[C@@H]2COc3ccc4ccccc4c3[C@@H]21, the “activity change, negative = inhibition” value is reported as inactive: -6.99%.
For Cc1ccccc1-c1nc(CS(=O)CC(=O)N2CCN(c3cc(Cl)ccc3C)CC2)c(C)o1 (configuration not stated), the Potency was inconclusive: 44.7 µM [inhibitor, partial curve].
In the case of CC12CN3CC(C)(CN(C1)P3(=O)Oc1ccccc1)C2=O (configuration not stated), the “activity change, negative = inhibition” value is reported as inactive: -33.1%.
In the case of Cc1ccc(S(=O)(=O)NC(Cc2cnc[nH]2)C(=O)O)cc1 (configuration not stated), the Potency is reported as active: 12.6 µM.
For COc1cc(OC)c(OC)cc1CNCCc1ccc(OC)c(OC)c1, the Potency was active: 3.16 µM.
With O=C(O)C1CSC(c2cccnc2)N1 (configuration not stated) the Potency was active: 7.94 µM.
In the case of Cc1ccc2c(c1Cl)NC(C(=O)O)C1CC(Sc3ccccc3[N+](=O)[O-])C(Cl)C21 (configuration not stated), the Potency is reported as active: 56.2 µM.
O=C1NC(=S)NC(=O)C1=Cc1ccc(OCC(=O)N2CCCC2)cc1 was tested, and the Potency was active: 44.7 µM.
CC(=O)NC(Cc1ccc(N(CCCl)CCCl)cc1)C(=O)NCC(=O)NCC(=O)O (configuration not stated) was tested, and the Potency was inconclusive: 22.4 µM [inhibitor, full curve].
O=C(Nc1ccc(F)c(Cl)c1)N(Cc1ccc2c(c1)OCO2)C1CCN(Cc2ccccc2)CC1 was tested, and the Potency was inconclusive: 31.6 µM [inhibitor, full curve].
For CN(C[C@H](Cc1ccccc1)N(C[C@H](Cc1ccccc1)N(CCC(C)(C)C)N=O)N=O)N=O, the Potency was inconclusive: 56.2 µM [inhibitor, partial curve].
With Cc1ccc(S(=O)(=O)N[C@@H](CCCCN)C(=O)CCl)cc1 the Potency was inconclusive: 79.4 µM [inhibitor, single point].
With O=c1[nH]c(=S)n(-c2ccccc2)c(O)c1/C=N/N1CCOCC1 the “activity change, negative = inhibition” value was inactive: -15.5%.
In the case of O=C1NC(=O)N(Cc2ccccc2)C(=O)/C1=C/C=C/c1ccco1, the “activity change, negative = inhibition” value is reported as inactive: -30%.
With Cc1cc(C)cc(NC(=S)NC2CC3CCCC(C2)N3Cc2cccs2)c1 (configuration not stated) the Potency was inconclusive: 56.2 µM [inhibitor, partial curve].
In the case of C(CCc1nn[nH]n1)CCc1nn[nH]n1, the Potency is reported as inconclusive: 15.8 µM [inhibitor, full curve, poor fit].
In the case of O=c1[nH]c(=S)n(C2CC2)c(O)c1/C=N/Nc1cccc2ccccc12, the Potency is reported as inconclusive: 56.2 µM [inhibitor, partial curve].
For O=C1C(c2ccccc2)=C(N2CC2)c2ccccc21, the Potency was active: 44.7 µM.
Nc1c(C(=O)Nc2ccc(F)c(Cl)c2)sc2nc3c(cc12)N1CCC3CC1 was tested, and the Potency was inconclusive: 89.1 µM [inhibitor, single point].
In the case of COc1ccccc1N1C(=O)NC(=O)/C(=C/c2ccc3c4c(cccc24)CC3)C1=O, the Potency is reported as inconclusive: 28.2 µM [inhibitor, single point].
For COc1ccc(Nc2nc(N)nc(CSc3nc4ccccc4s3)n2)cc1, the Potency was inconclusive: 39.8 µM [inhibitor, partial curve].
CC1(CCO)C(=O)NC(=S)NC1=O was tested, and the Potency was inconclusive: 28.2 µM [inhibitor, partial curve].
With COc1ccccc1OCC#CCN1CCCC(C)C1 (configuration not stated) the Potency was active: 11.2 µM.
For CC(N=Cc1c(O)[nH]c(=O)[nH]c1=O)c1ccccc1 (configuration not stated), the “activity change, negative = inhibition” value was inactive: -18%.
COC(=O)C1=C(c2ccc(OC(F)(F)F)cc2)C[C@@H]2CC[C@H]1N2C(=O)NCCCOC(C)C was tested, and the “activity change, negative = inhibition” value was inactive: -16.2%.
For Cn1cc(C(=O)NP(=O)(N2CCOCC2)N2CCOCC2)c2ccccc21, the Potency was inconclusive: 22.4 µM [inhibitor, single point].
With COc1ccc(/C=C2\C(=O)NC(=S)N(C)C2=O)cc1C the Potency was active: 3.98 µM.
For CCCCC(=O)N/N=C/c1c(O)n(CCc2ccccc2)c(=O)[nH]c1=O, the Potency was active: 79.4 µM.
Cc1ccc(N2C(=O)NC(=O)/C(=C/c3ccoc3)C2=O)cc1 was tested, and the Potency was active: 10 µM.
For CN(C)c1ccc(/C=C/C=C/c2sc3ccccc3[n+]2C)cc1, the Potency was inconclusive: 25.1 µM [inhibitor, full curve].
For CCc1ccccc1N1C(=O)CC(=O)NC1=O, the “activity change, negative = inhibition” value was inactive: -12%.
With CC(C)Cc1[nH]c(=O)c(C#N)c2c1CCC2 the “activity change, negative = inhibition” value was inactive: -19.2%.
With N/C(=N\[N+](=O)[O-])NCCCC(NC(=O)CNC(=O)c1ccccc1)C(=O)O (configuration not stated) (Bz-Gly-[ξArg(NO2)]-OH) the Potency was inconclusive: 39.8 µM [inhibitor, single point].
Cc1c(C(=O)Nc2ccccc2)c2cc(O)ccc2n1Cc1ccccc1 was tested, and the Potency was inconclusive: 22.4 µM [inhibitor, full curve].
With O=C1NC(=O)C(Sc2ccccc2[N+](=O)[O-])C(=O)N1 the Potency was active: 28.2 µM.
With S=c1[nH]nc(-c2ccco2)n1/N=C/c1cccs1 the Potency was active: 39.8 µM.
With O=[N+]([O-])c1ccc(C2[C@H]3C(c4ccccc4)=NC4(CCCCC4)N23)cc1 (some centres not stated) the Potency was inconclusive: 50.1 µM [inhibitor, partial curve].
In the case of CN(C[C@H](Cc1ccccc1)N(C[C@H](c1ccccc1)N(CCc1ccccc1)N=O)N=O)N=O, the Potency is reported as inconclusive: 56.2 µM [inhibitor, partial curve].
For O=C1NC(=O)C(Cc2cccs2)C(=O)N1, the Potency was inconclusive: 22.4 µM [inhibitor, full curve].
Cc1cccc(N2C(=O)NC(=O)/C(=C\c3cnn(-c4ccccc4)c3)C2=O)c1 was tested, and the Potency was inconclusive: 79.4 µM [inhibitor, single point].
For COCCCn1c(N)c(C(=O)Nc2sc3c(c2C(=O)OC)CCCC3)c2nc3ccccc3nc21, the Potency was inconclusive: 44.7 µM [inhibitor, partial curve].
Cc1nc2ccccc2c(=O)n1-c1cccnc1 was tested, and the Potency was inconclusive: 100 µM [inhibitor, partial curve].
In the case of FC(F)(F)c1ccccc1CNCCc1c[nH]c2ccccc12, the Potency is reported as active: 17.8 µM.
In the case of C[C@]12CC[C@H](O)C[C@H]1CC[C@@H]1[C@@H]2C[C@@H](O)[C@]2(C)[C@@H](C3=CC(=O)OC3)CC[C@]12O, the Potency is reported as inconclusive: 79.4 µM [inhibitor, partial curve].
In the case of CC/C(=C\C=C\[C@@H]1C=C[C@@H]2CCC[C@H]2[C@@H]1C(=O)c1ccc[nH]1)[C@@H]1O[C@@H]([C@@H](C)C(=O)O)CC[C@@H]1C, the Potency is reported as inconclusive: 79.4 µM [inhibitor, partial curve].
With NCCc1c[nH]c2ccccc12 the Potency was inconclusive: 50.1 µM [inhibitor, partial curve].
In the case of S=c1[nH]nc(C2CC2)n1Cc1ccccc1, the Potency is reported as active: 15.8 µM.
O=C(O)c1cccc2c1NC(C(=O)O)C1CC(Sc3ccccc3[N+](=O)[O-])C(Cl)C21 (configuration not stated) was tested, and the Potency was active: 14.1 µM.
For O=c1c2ccccc2nc(/C=C/c2ccc(O)c(O)c2)n1-c1ccccc1, the “activity change, negative = inhibition” value was inactive: -33.6%.
COc1cc(OC)c(OC)cc1CNCCc1ccc2c(c1)OCO2 was tested, and the Potency was active: 31.6 µM.
For O=[N+]([O-])c1ccc(N2CCCC2)c2ncccc12, the “activity change, negative = inhibition” value was inactive: -21.4%.
With CCN1CCN(c2cc(N3CCCC3)c([N+](=O)[O-])cc2F)CC1 the Potency was inconclusive: 56.2 µM [inhibitor, partial curve].
With O=[N+]([O-])c1cc(F)c(N2CCCCC2)cc1Br the Potency was inconclusive: 39.8 µM [inhibitor, partial curve].
For Cc1noc(C)c1CSc1nc2cc(S(=O)(=O)N3CCOCC3)ccc2o1, the Potency was inconclusive: 79.4 µM [inhibitor, partial curve].
With COCCCN=Cc1c(O)[nH]c(=S)[nH]c1=O the “activity change, negative = inhibition” value was inactive: -5.63%.
CN1C(=O)/C(=C\c2ccc(Br)s2)C(=O)NC1=S was tested, and the Potency was active: 20 µM.
Cc1ccc(C(=O)Nc2nc3ccccc3n2CCN2CCCC2)cc1 was tested, and the Potency was inconclusive: 56.2 µM [inhibitor, partial curve].
With NC(Cc1ccccc1)c1nc2ccccc2[nH]1 (configuration not stated) the Potency was inconclusive: 25.1 µM [inhibitor, full curve, poor fit].
For Cc1cc(C)cc(N2C(=O)NC(=O)/C(=C\C=C\c3ccco3)C2=O)c1, the Potency was inconclusive: 56.2 µM [inhibitor, partial curve, poor fit].
Cc1cc2ccccn2c1C(C[N+](=O)[O-])c1c(F)cccc1Cl (configuration not stated) was tested, and the Potency was inconclusive: 39.8 µM [inhibitor, partial curve, poor fit].
With CCC(=NCc1ccco1)c1c(O)n(Cc2ccccc2)c(=O)[nH]c1=O the Potency was inconclusive: 56.2 µM [inhibitor, partial curve, poor fit].
For CCCCn1c(O)c(C(C)=NCCc2c[nH]c3ccccc23)c(=O)[nH]c1=O, the Potency was inconclusive: 31.6 µM [inhibitor, full curve].
CCc1ccc(CN2CCN(Cc3ccc(SC)cc3)CC2)cc1 was tested, and the Potency was inconclusive: 0.631 µM [inhibitor, partial curve, poor fit].
COc1ccc(C=C2C(=O)NC(=S)NC2=O)cc1 was tested, and the Potency was active: 89.1 µM.
For Cc1ccc(Cl)cc1N1CCN(C(=O)c2cn(C)c(=O)c3c2c2ccccc2n3C)CC1, the Potency was inconclusive: 20 µM [inhibitor, full curve].
With Cc1ccc2c(c1)c(=O)c1c3n2CCN(CC2CO2)C3CC1 (configuration not stated) the “activity change, negative = inhibition” value was inactive: -4.9%.
For Cc1cc(OCC(=O)N[C@H](C(=O)O)c2ccccc2)c2c3c(c(=O)oc2c1)CCC3, the Potency was inconclusive: 89.1 µM [inhibitor, single point].
In the case of O=C(N/N=C/c1c(O)n(C2CCCCC2)c(=S)[nH]c1=O)c1ccccc1, the Potency is reported as active: 79.4 µM.
CCOc1ccc(C(C)=O)cc1Cc1c(O)[nH]c(=S)[nH]c1=O was tested, and the Potency was active: 89.1 µM.
With CC(=O)CC(C)(C)n1c[n+](C)nn1 the Potency was inconclusive: 89.1 µM [inhibitor, single point].
